The text below walks through data of publication PMC4336329 (PLoS ONE, 2015).

Hit rate of the full screen: of about 310,000 compounds, about 2,200 (0.71%) showed an effect of 50% or more. The effect is printed as a negative number. The list shows a part of the results.

For this assay, the target named is human ether-à-go-go-related gene (hERG) potassium channel (human, UniProt Q12809). Put plainly: primary screen, population patch clamp on CHO cells stably expressing hERG.
Chain of human ether-à-go-go-related gene (hERG) potassium channel (Q12809 whole entry, looked up): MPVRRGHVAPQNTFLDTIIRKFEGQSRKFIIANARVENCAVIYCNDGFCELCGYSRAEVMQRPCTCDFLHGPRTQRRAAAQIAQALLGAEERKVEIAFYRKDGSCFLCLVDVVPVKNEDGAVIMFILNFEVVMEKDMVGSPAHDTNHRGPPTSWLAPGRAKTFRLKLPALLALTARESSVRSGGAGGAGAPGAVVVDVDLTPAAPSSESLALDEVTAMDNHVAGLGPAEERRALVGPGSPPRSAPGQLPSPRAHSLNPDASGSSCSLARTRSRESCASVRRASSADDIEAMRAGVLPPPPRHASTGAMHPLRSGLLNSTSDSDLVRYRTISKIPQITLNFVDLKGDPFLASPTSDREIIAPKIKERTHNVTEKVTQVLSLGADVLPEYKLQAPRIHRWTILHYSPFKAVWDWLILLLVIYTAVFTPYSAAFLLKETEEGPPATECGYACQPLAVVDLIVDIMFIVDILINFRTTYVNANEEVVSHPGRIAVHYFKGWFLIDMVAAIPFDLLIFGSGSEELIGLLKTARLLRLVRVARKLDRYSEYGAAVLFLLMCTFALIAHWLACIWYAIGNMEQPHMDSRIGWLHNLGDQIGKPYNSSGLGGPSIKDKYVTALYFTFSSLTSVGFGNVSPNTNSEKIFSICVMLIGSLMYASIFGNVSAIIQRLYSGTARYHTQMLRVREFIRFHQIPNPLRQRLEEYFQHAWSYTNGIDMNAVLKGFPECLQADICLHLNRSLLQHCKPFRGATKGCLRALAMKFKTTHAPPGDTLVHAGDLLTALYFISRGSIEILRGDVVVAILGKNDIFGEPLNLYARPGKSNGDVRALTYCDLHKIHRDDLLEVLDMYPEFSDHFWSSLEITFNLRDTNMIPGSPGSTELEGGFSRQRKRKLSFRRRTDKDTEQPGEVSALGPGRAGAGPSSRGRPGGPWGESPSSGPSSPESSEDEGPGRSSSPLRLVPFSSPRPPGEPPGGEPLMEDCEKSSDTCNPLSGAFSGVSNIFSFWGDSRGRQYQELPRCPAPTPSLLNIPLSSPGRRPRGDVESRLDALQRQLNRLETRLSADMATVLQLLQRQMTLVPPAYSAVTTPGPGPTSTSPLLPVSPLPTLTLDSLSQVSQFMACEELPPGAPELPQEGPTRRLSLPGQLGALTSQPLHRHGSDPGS
Take `CCCc1ccc(C#N)c(SC2CC(=O)N(c3ccc(OC)cc3)C2=O)n1` (centres unmarked): the “hERG current change (%, negative = inhibition) at 1uM” value came out at 12.9%.
As to `COc1ccccc1NC(CC(=O)c1ccccc1)C(=O)OCC(=O)c1ccc(C)c(C)c1` (centres unmarked), the “hERG current change (%, negative = inhibition) at 1uM” value is recorded as -6.19%.
`O=C(Nc1ccc(N2CCN(C(=O)c3ccccc3)CC2)cc1)c1cc2ccccc2o1`: the “hERG current change (%, negative = inhibition) at 1uM” value was found to be 1.57%.
In the case of `COc1ccc2c(c1OC)C(C1c3c(cc4c(c3OC)OCO4)CCN1C)OC2=O` (centres unmarked), the “hERG current change (%, negative = inhibition) at 1uM” value was determined as 7.9%.
As to `COc1cccc(/C=C2/Sc3ccc(C(=O)NCCN4CCCCCC4)cc3NC2=O)c1`, the “hERG current change (%, negative = inhibition) at 1uM” value is on record as -11.1%.
As for `CCOC(=O)c1nc(Nc2ccc(OC)cc2)c2ccccc2n1`, the “hERG current change (%, negative = inhibition) at 1uM” value was 7.75%.
On to `CC(=O)Nc1ccc(S(=O)(=O)Nc2nc3ccccc3nc2-n2ccc(=NC(=O)c3ccccc3)cc2)cc1`, for which the “hERG current change (%, negative = inhibition) at 1uM” value stood at 14.9%.
Regarding `O=C(CSc1nnc(CNC(=O)c2ccco2)o1)Nc1ccccc1F`, the “hERG current change (%, negative = inhibition) at 1uM” value stood at 5.88%.
On to `FC(F)(F)c1ccc(-n2cnc3ccccc32)nc1`, for which the “hERG current change (%, negative = inhibition) at 1uM” value was 4.89%.
As for `COc1cc(S(=O)(=O)N2CCCCC2)ccc1NC(=O)c1ccncc1`, the “hERG current change (%, negative = inhibition) at 1uM” value is -0.583%.
On to `COc1cc(OC)cc(-c2nnc(SCC(=O)N3c4ccccc4Sc4ccccc43)o2)c1`, for which the “hERG current change (%, negative = inhibition) at 1uM” value turned out to be 16.1%.
For `CN(C)S(=O)(=O)c1ccc(C(=O)Nc2nc(-c3cc4ccccc4o3)cs2)cc1`, the “hERG current change (%, negative = inhibition) at 1uM” value came to 11.7%.
Take `Cc1cc(C(=O)N/N=C/c2ccco2)n[nH]1`: the “hERG current change (%, negative = inhibition) at 1uM” value was found to be 11.9%.
The same measure for `COC(=O)c1c(C)noc1-c1cc(C)on1`: 13.8%; for `CCOc1ccc(CCNC(=O)COC(=O)/C=C/c2ccc(C)o2)cc1OCC`: 6.47%.
As for `CCC1Oc2ccc(C)cc2N(CC(=O)NCCCN2CCOCC2)C1=O` (centres unmarked), the “hERG current change (%, negative = inhibition) at 1uM” value was found to be 14.8%.
For the compound `COc1ccccc1N1CCN(S(=O)(=O)c2ccc(-n3cnnn3)c(C)c2)CC1`, the “hERG current change (%, negative = inhibition) at 1uM” value is given as 10.9%.
In the case of `CC(C)Cn1c(SCC(=O)N2CCCc3ccccc32)nc2ccccc2c1=O`, the “hERG current change (%, negative = inhibition) at 1uM” value is listed as 5.92%.
Turning to `COc1cc(/C=N/n2nnnc2N)ccc1OC(C)=O`, the “hERG current change (%, negative = inhibition) at 1uM” value turned out to be 13.2%.
The same measure for `Cc1ccc(OCC(=O)NC(=S)Nc2cccc(C)n2)cc1`: 9.88%; for `COC(=O)/C=C/c1ccc(-n2ccnc2)cc1`: 0.824%; for `CCCCCC(=O)NNC(=O)c1ccc(F)cc1`: 16.6%.
The same measure for `O=C(NC(=S)N1CCN(c2ccccc2)CC1)c1ccccc1`: 15.1%; for `Cc1sc2ncnc(SCC(=O)c3ccc(O)cc3O)c2c1C`: 14.6%; for `COCCCN1C(=O)C(O)=C(C(C)=O)C1c1cccc(F)c1` (centres unmarked): 14.7%.
On to `Cc1ccccc1NC(=O)c1ccc(OCC(=O)Nc2ccccc2F)cc1`, for which the “hERG current change (%, negative = inhibition) at 1uM” value was determined as 14.9%.
On to `O=C(CN1CCN(S(=O)(=O)c2ccc(Br)cc2)CC1)N/N=C/c1ccco1`, for which the “hERG current change (%, negative = inhibition) at 1uM” value is on record as 0.215%.
Under `CC(C)(C)N1CC(COc2ccccc2)OC1=O` (centres unmarked) stands -1.44%.
For the compound `COP(=O)(NS(=O)(=O)c1ccccc1)OC`, the “hERG current change (%, negative = inhibition) at 1uM” value is reported as 14.3%.
In the case of `CS(=O)(=O)c1ccc(Cl)c(C(=O)NC2CCSc3ccccc32)c1` (centres unmarked), the “hERG current change (%, negative = inhibition) at 1uM” value came out at 4.24%.
Under `Cc1ccc(S(=O)(=O)N2CCOCC2)cc1C(=O)Nc1nc2ccccc2[nH]1` stands 7.23%; under `C=CCn1c(O)c(C(C)=NCCN2CCN(C(=S)NC)CC2)c(=O)[nH]c1=O`, 4.36%; under `O=C(Cc1ccccc1)Nc1cccc(NC(=O)c2cccs2)c1`, 4.98%.
Turning to `CCN1CCN(C(=S)Nc2ccc3nc(N4CCN(CC)CC4)cc(C)c3c2)CC1`, the “hERG current change (%, negative = inhibition) at 1uM” value was found to be 2.12%.
The same measure for `COc1cccc(-c2nn(C)c3sc(C(=O)Nc4ccc5c(c4)OCCO5)cc23)c1`: 13.8%.
For `Clc1cccc(OCc2nnc(-c3ccccc3Br)o2)c1`, the “hERG current change (%, negative = inhibition) at 1uM” value is reported as 9.74%.
The same measure for `O=C(COc1ccc2c3c(c(=O)oc2c1)CCCC3)NCc1ccccn1`: 11.8%.
Regarding `O=C(COC(=O)C1COc2ccccc2O1)NC(=O)Nc1ccc2c(c1)OCCO2` (centres unmarked), the “hERG current change (%, negative = inhibition) at 1uM” value is on record as 4.33%.
For `CCn1nc(C(=O)OCC(=O)Nc2ncc(Cl)c(C)c2Cl)c2ccccc2c1=O`, the “hERG current change (%, negative = inhibition) at 1uM” value is 8.93%.
For the compound `COc1ccccc1N1CCN(CC(O)COc2ccc3c(C)cc(=O)oc3c2)CC1` (centres unmarked), the “hERG current change (%, negative = inhibition) at 1uM” value is listed as 33.4%.
`Cl.O=C(CNCc1cccs1)Nc1ccc(S(=O)(=O)N2CCCCC2)cc1`: the “hERG current change (%, negative = inhibition) at 1uM” value was determined as 1.26%.
On to `CN(C)/C=C1\N=C(c2ccc3c(c2)OCO3)OC1=O`, for which the “hERG current change (%, negative = inhibition) at 1uM” value came to 19.3%.
As to `CN1C(=O)N(C)C2(c3ccccc3)N(C)C(=O)NC12c1ccccc1` (centres unmarked), the “hERG current change (%, negative = inhibition) at 1uM” value is recorded as -3.5%.
Regarding `CC(C)(C)c1ccc(/C=C2/SC(N3CCCC3)=NC2=O)cc1`, the “hERG current change (%, negative = inhibition) at 1uM” value was 0.766%.
